This is one part of the list. Values were computed here from the reads of four pooled replicates and scatter widely.

From the BET-seq Pho4 binding data (Le et al. 2018) come the findings set out here.

The assay concerns the target T1, Pho4 (S. cerevisiae) (UniProt P07270).
T1 sequence: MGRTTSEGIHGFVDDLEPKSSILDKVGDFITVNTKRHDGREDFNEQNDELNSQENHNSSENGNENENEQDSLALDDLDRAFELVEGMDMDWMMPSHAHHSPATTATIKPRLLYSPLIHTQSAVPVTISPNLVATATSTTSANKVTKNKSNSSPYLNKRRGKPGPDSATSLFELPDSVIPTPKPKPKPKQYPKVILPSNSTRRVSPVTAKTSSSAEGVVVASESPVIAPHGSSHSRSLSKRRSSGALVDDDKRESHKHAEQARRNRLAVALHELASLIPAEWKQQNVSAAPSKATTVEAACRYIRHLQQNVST
The assay can be described thus: relative binding free energy (BET-seq); higher = weaker binding. As to conditions: reference: library average.
As for ACTTGCACGTGAGGGG, the “relative binding free energy” value was -0.01 kcal/mol.

For the sequence AATTACACGTGTTTGA, the “relative binding free energy” value turned out to be 0.09 kcal/mol. As for AGTCGCACGTGTGGTA, the “relative binding free energy” value stood at 0 kcal/mol. In the case of CGCTTCACGTGTTTGA it was 0.21 kcal/mol; in that of GTTATCACGTGTGAGA, 0.26 kcal/mol. GGTACCACGTGTGGCG: the “relative binding free energy” value was determined as 0 kcal/mol. In the case of TATGACACGTGGAGGT, the “relative binding free energy” value was -0.09 kcal/mol.

With ACGTTCACGTGTTAGT, the “relative binding free energy” value turned out to be 0.17 kcal/mol. GGGGACACGTGTGTGC: the “relative binding free energy” value worked out at 0 kcal/mol. As to TATATCACGTGGGCAG, the “relative binding free energy” value was 0.04 kcal/mol. Consider GCTAGCACGTGGTGGC, for which the “relative binding free energy” value is -0.06 kcal/mol. Regarding GGCTGCACGTGTGAGT, the “relative binding free energy” value came out at 0.18 kcal/mol.

Consider GTGTCCACGTGTGGCT, for which the “relative binding free energy” value was determined as 0.16 kcal/mol. In the case of GGAGCCACGTGAGGTG, the “relative binding free energy” value was 0.15 kcal/mol. Regarding AACGGCACGTGTTCTG, the “relative binding free energy” value was determined as 0.05 kcal/mol.

TGACACACGTGGGTTA: the “relative binding free energy” value is -0.08 kcal/mol.

Take TGGGTCACGTGTAAGC: the “relative binding free energy” value worked out at 0.23 kcal/mol. In the case of GTTGACACGTGTGTGA it was 0.03 kcal/mol; in that of TTCGGCACGTGAAATG, 0.13 kcal/mol; in that of GTATCCACGTGAGGTT, 0.29 kcal/mol. In the case of TATAGCACGTGCGGGC, the “relative binding free energy” value is -0.11 kcal/mol. As to GGCTGCACGTGAGCGT, the “relative binding free energy” value was 0.11 kcal/mol. In the case of GAATACACGTGGTTTT it was 0.14 kcal/mol. In the case of AGTTACACGTGGGAGT, the “relative binding free energy” value was found to be 0.01 kcal/mol.

Take GGTCGCACGTGGGGGA: the “relative binding free energy” value is -0.04 kcal/mol. In the case of ATTGTCACGTGGTCGC, the “relative binding free energy” value stood at 0.03 kcal/mol. On to TGCATCACGTGTTAGG, for which the “relative binding free energy” value came out at 0.18 kcal/mol. For the sequence AGTTCCACGTGTTGTT, the “relative binding free energy” value was -0.06 kcal/mol. Consider TATAGCACGTGGAAGT, for which the “relative binding free energy” value is -0.02 kcal/mol. Take ATTTGCACGTGGAATG: the “relative binding free energy” value came out at 0.21 kcal/mol. With TGAGACACGTGTTGTC, the “relative binding free energy” value is -0.01 kcal/mol. On to GTCGTCACGTGGATTG, for which the “relative binding free energy” value worked out at 0.2 kcal/mol.

Turning to GTGGACACGTGCTAGT, the “relative binding free energy” value is -0.07 kcal/mol. For AGGTGCACGTGTGTAA, the “relative binding free energy” value is -0.04 kcal/mol.

For the sequence TTTTGCACGTGACCGG, the “relative binding free energy” value was determined as 0.06 kcal/mol.

TCAGTCACGTGGGTTG: the “relative binding free energy” value is -0.08 kcal/mol. For the sequence AAAGGCACGTGTGATA, the “relative binding free energy” value is -0.09 kcal/mol.

With GAGGTCACGTGGTTGC, the “relative binding free energy” value stood at 0.2 kcal/mol. For the sequence TTATACACGTGGGAAA, the “relative binding free energy” value stood at 0.06 kcal/mol. In the case of GGGTGCACGTGGAGCT, the “relative binding free energy” value was 0.02 kcal/mol. Regarding TCTTTCACGTGTAATA, the “relative binding free energy” value worked out at 0.42 kcal/mol.

AGTTGCACGTGGTCGT: the “relative binding free energy” value is -0.08 kcal/mol. TAAGCCACGTGTGGTA: the “relative binding free energy” value was -0.04 kcal/mol. For GTGTACACGTGCGGTT, the “relative binding free energy” value worked out at 0.01 kcal/mol. Turning to AGTGACACGTGGGAGG, the “relative binding free energy” value was -0.12 kcal/mol.

As for CTTTACACGTGGGAAT, the “relative binding free energy” value was 0.12 kcal/mol. For GGTGGCACGTGAGAAA, the “relative binding free energy” value stood at 0.2 kcal/mol.

Turning to GTATTCACGTGATTTT, the “relative binding free energy” value is 0.31 kcal/mol. In the case of TGGATCACGTGCGGGT it was 0.07 kcal/mol. Regarding AAATACACGTGCGGTT, the “relative binding free energy” value turned out to be 0.1 kcal/mol. Take GCTGGCACGTGTCAGG: the “relative binding free energy” value is 0.04 kcal/mol. With TATTTCACGTGAAATT, the “relative binding free energy” value came out at 0.4 kcal/mol. Take GCGTGCACGTGAGGGA: the “relative binding free energy” value came to 0.32 kcal/mol. In the case of TAGCCCACGTGGGTGG, the “relative binding free energy” value is -0.12 kcal/mol. Turning to TTTATCACGTGAAGTG, the “relative binding free energy” value was determined as 0.45 kcal/mol. In the case of TATGACACGTGTGGAC, the “relative binding free energy” value worked out at 0.09 kcal/mol.

On to AGCGACACGTGGGAGT, for which the “relative binding free energy” value was 0 kcal/mol. In the case of TGAGGCACGTGGGTAA it was -0.13 kcal/mol; in that of TATTCCACGTGTGGAT, 0.13 kcal/mol; in that of GATTTCACGTGTTACT, 0.3 kcal/mol.

As for TTGTACACGTGGTAGA, the “relative binding free energy” value was -0.05 kcal/mol. In the case of CGTGGCACGTGGTATT it was -0.21 kcal/mol; in that of ATAGTCACGTGTGATT, 0.03 kcal/mol; in that of TGGATCACGTGCAGTT, 0.25 kcal/mol.

As for GATTTCACGTGTGATA, the “relative binding free energy” value is 0.28 kcal/mol. For GTGTACACGTGCGGCG, the “relative binding free energy” value was -0.06 kcal/mol. Regarding AGCGTCACGTGATTGA, the “relative binding free energy” value worked out at 0.27 kcal/mol. For AACGTCACGTGAGGGA, the “relative binding free energy” value is 0.14 kcal/mol.

For the sequence ATTGTCACGTGGCTTC, the “relative binding free energy” value was found to be 0.14 kcal/mol. On to GTGGGCACGTGAGGTC, for which the “relative binding free energy” value came to 0.18 kcal/mol. Take GGGAACACGTGTGTGT: the “relative binding free energy” value was determined as 0.03 kcal/mol. In the case of TCTCACACGTGGTGGG it was -0.02 kcal/mol. Turning to GTCTGCACGTGGAGAT, the “relative binding free energy” value amounted to 0.17 kcal/mol. In the case of GATTTCACGTGCAGGT it was 0.43 kcal/mol; in that of GTTTGCACGTGGATGT, 0.12 kcal/mol. Turning to CAGTTCACGTGTGAGT, the “relative binding free energy” value stood at 0.37 kcal/mol. In the case of ATTGCCACGTGGGTTA it was -0.18 kcal/mol. On to GGTGTCACGTGGGTAC, for which the “relative binding free energy” value was -0.08 kcal/mol.

As to TGGATCACGTGATGTC, the “relative binding free energy” value stood at 0.23 kcal/mol.

In the case of AATATCACGTGGCATG, the “relative binding free energy” value came to 0.07 kcal/mol. Take TCCTTCACGTGTATTT: the “relative binding free energy” value is 0.23 kcal/mol. Turning to AGGATCACGTGTGGAG, the “relative binding free energy” value was 0.18 kcal/mol. Take GAAGGCACGTGGAGGA: the “relative binding free energy” value was found to be 0.04 kcal/mol. In the case of GTTAACACGTGTTTGC it was -0.04 kcal/mol. Consider CAGATCACGTGATGGT, for which the “relative binding free energy” value amounted to 0.35 kcal/mol. For the sequence GTGAGCACGTGATCGG, the “relative binding free energy” value was 0.21 kcal/mol. In the case of TATAACACGTGAGGGC it was 0.2 kcal/mol; in that of AGTTACACGTGAGATT, 0.4 kcal/mol; in that of AACTACACGTGTAGGT, 0.1 kcal/mol. With TTAGACACGTGTCGGC, the “relative binding free energy” value turned out to be 0.14 kcal/mol. Take ATTTGCACGTGTATAT: the “relative binding free energy” value is -0.05 kcal/mol. In the case of TAGAACACGTGTGCGT it was 0.04 kcal/mol. For TGCCACACGTGGCGGT, the “relative binding free energy” value was determined as 0.17 kcal/mol. Consider GGTTGCACGTGAGCAT, for which the “relative binding free energy” value came to 0.11 kcal/mol.

Consider ATTAACACGTGGGTTG, for which the “relative binding free energy” value was -0.11 kcal/mol. Regarding CATGCCACGTGTGGTT, the “relative binding free energy” value was -0.08 kcal/mol.

As to TGATCCACGTGTTATG, the “relative binding free energy” value amounted to 0.09 kcal/mol. Regarding CGAGTCACGTGGGTAG, the “relative binding free energy” value came out at 0.04 kcal/mol. As to CGGGGCACGTGTCATG, the “relative binding free energy” value is -0.17 kcal/mol. Regarding GTGGTCACGTGGAAAT, the “relative binding free energy” value was 0.11 kcal/mol.

For the sequence TGAGGCACGTGATTTT, the “relative binding free energy” value was found to be 0.07 kcal/mol.

Consider TAAGCCACGTGGTTTG, for which the “relative binding free energy” value is -0.09 kcal/mol. For CTTAACACGTGGTAGG, the “relative binding free energy” value was -0.05 kcal/mol. As to ATTTGCACGTGCATTG, the “relative binding free energy” value was -0.21 kcal/mol. On to ATGTTCACGTGGTGCA, for which the “relative binding free energy” value amounted to 0.11 kcal/mol. In the case of TTGAACACGTGGTGTA, the “relative binding free energy” value is -0.1 kcal/mol. With TTTTTCACGTGCAAAG, the “relative binding free energy” value was 0.26 kcal/mol.

On to AGTGGCACGTGAAAGC, for which the “relative binding free energy” value came out at 0.21 kcal/mol. Regarding GTTCGCACGTGGTGGA, the “relative binding free energy” value is -0.07 kcal/mol. As for AGTTGCACGTGAAAGA, the “relative binding free energy” value is 0.15 kcal/mol. For the sequence AGTTCCACGTGGTTAG, the “relative binding free energy” value came out at 0.02 kcal/mol.

With GCTTGCACGTGCGGGT, the “relative binding free energy” value is 0.04 kcal/mol. Regarding GGATACACGTGGTAAG, the “relative binding free energy” value came to 0.05 kcal/mol.

Regarding ACGTTCACGTGGGCGG, the “relative binding free energy” value stood at 0.11 kcal/mol.

As for CTTTGCACGTGAGGCT, the “relative binding free energy” value is 0.09 kcal/mol. ATACGCACGTGGGGTG: the “relative binding free energy” value was -0.27 kcal/mol.

As to TGATCCACGTGGTGTT, the “relative binding free energy” value was -0.05 kcal/mol. In the case of CAGGTCACGTGGTATT, the “relative binding free energy” value is 0.07 kcal/mol. In the case of TTTTTCACGTGGTATT it was 0.27 kcal/mol.

For CGTTTCACGTGGGTCT, the “relative binding free energy” value worked out at 0.01 kcal/mol. Regarding TCTGGCACGTGGAAGT, the “relative binding free energy” value is -0.06 kcal/mol. In the case of TAATTCACGTGATTGG, the “relative binding free energy” value was found to be 0.3 kcal/mol.

For GGGGACACGTGGGACT, the “relative binding free energy” value was -0.05 kcal/mol. Consider TGCGTCACGTGGGGAT, for which the “relative binding free energy” value was 0.04 kcal/mol. In the case of TTGGTCACGTGTGGCA, the “relative binding free energy” value amounted to 0.16 kcal/mol. In the case of GCACGCACGTGGGTGG it was -0.22 kcal/mol; in that of TTTTACACGTGTGTCA, 0.09 kcal/mol; in that of TTGGACACGTGTGAGG, 0.1 kcal/mol. Consider ATAATCACGTGTGTGA, for which the “relative binding free energy” value was determined as 0.01 kcal/mol. Take AATTGCACGTGGAAGG: the “relative binding free energy” value is 0.03 kcal/mol.

Take CAGAGCACGTGTGGTT: the “relative binding free energy” value is -0.11 kcal/mol.

Consider AGGTGCACGTGATATG, for which the “relative binding free energy” value is 0.15 kcal/mol. In the case of TATGGCACGTGAAAGG it was 0.14 kcal/mol; in that of GGGGTCACGTGGGTCA, -0.06 kcal/mol. Turning to TTACTCACGTGGTAGG, the “relative binding free energy” value is 0.15 kcal/mol. GTTGCCACGTGCGTTT: the “relative binding free energy” value is -0.17 kcal/mol. GGGACCACGTGGGAGG: the “relative binding free energy” value is -0.07 kcal/mol. Take AATTTCACGTGATTGG: the “relative binding free energy” value stood at 0.34 kcal/mol. Take CGTTGCACGTGTAGGG: the “relative binding free energy” value was -0.04 kcal/mol. As to GTATGCACGTGTGGGC, the “relative binding free energy” value came out at 0.04 kcal/mol.

On to AGTATCACGTGGTGGA, for which the “relative binding free energy” value worked out at 0.18 kcal/mol.

Consider AGTAGCACGTGCTGGA, for which the “relative binding free energy” value is -0.04 kcal/mol. Regarding ATGTTCACGTGGGATC, the “relative binding free energy” value worked out at 0.26 kcal/mol. As to CGTGGCACGTGGGCAG, the “relative binding free energy” value is -0.31 kcal/mol. In the case of AGGTTCACGTGAGTTA it was 0.37 kcal/mol; in that of CGGAACACGTGGTGAG, 0.11 kcal/mol.
